Experimental data published in PubChem BioAssay AID1745853 (National Center for Advancing Translational Sciences (NCATS), 2022).
Some of the results follow. Shown are side measurements of this screen, not its main read-out; they come without a call.

Legend:
Experiment in all cases: Primary Screen for Target Class Profiling of Small Molecule Inhibitors of Methyltransferases
[1] = target: Glycine N-methyltransferase (Homo sapiens) (UniProt Q14749); conditions: purified enzyme, MTase-Glo SAH luminescence; measured here: GNMT inhibition; at 40 µM; stronger effect = lower value
Method in brief: (§1)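 Each enzyme was reacted with SAM and its substrate, with compounds tested once at 40 uM; SAH formed was read by MTase-Glo luminescence.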

[2] = target: Guanidinoacetate N-methyltransferase (Homo sapiens) (UniProt Q14353); conditions: purified enzyme, MTase-Glo SAH luminescence; measured here: GAMT inhibition; at 40 µM; stronger effect = lower value
Method in brief: as §1

[3] = target: Histamine N-methyltransferase (Homo sapiens) (UniProt P50135); conditions: purified enzyme, MTase-Glo SAH luminescence; measured here: HNMT inhibition; at 40 µM; stronger effect = lower value
Method in brief: as §1

[4] = target: Nicotinamide N-methyltransferase (Homo sapiens) (UniProt P40261); conditions: purified enzyme, MTase-Glo SAH luminescence; measured here: NNMT inhibition; at 40 µM; stronger effect = lower value
Method in brief: as §1

[5] = target: Phenylethanolamine N-methyltransferase (Homo sapiens) (UniProt P11086); conditions: purified enzyme, MTase-Glo SAH luminescence; measured here: PNMT inhibition; at 40 µM; stronger effect = lower value
Method in brief: as §1
% is scaled to controls: 0 for no effect and ±100 for the full control effect.

Structure (SMILES) | activity change, negative = inhibition [1] | activity change, negative = inhibition [2] | activity change, negative = inhibition [3] | activity change, negative = inhibition [4] | activity change, negative = inhibition [5]
CCCC1c2cccn2CCN1C(=O)Nc1cc(C)ccc1C (stereo not drawn) | -6.46% | 3.54% | -22.2% | -4.09% | -2.6%
Cc1ccc(C)c(C(=O)Cn2nc3n(CC(C)C)c(=O)c4ccccc4n3c2=O)c1 | -0.202% | 4.99% | 3.67% | -5.36% | 0.381%
O=C(N[C@H]1CCN2C(=O)c3cc(/C=C/c4ccccc4)ccc3NC(=O)[C@H]12)C1CCCC1 | -11.4% | -11.1% | -4.91% | -24% | -14.7%
COc1ccc(-c2cc3n(n2)CC(C)(C(=O)NCc2ccccc2)N(Cc2cc(OC)ccc2OC)C3=O)cc1 (stereo not drawn) | 8.04% | 0% | 9.63% | 5.32% | 2.12%
CN(CC1CCOCC1)S(=O)(=O)c1ccc(Cl)cc1 | -2.56% | -6.25% | 0.54% | -10.4% | -3.08%
CC(C)CNC(=O)c1ccc2c(=O)n(CC(C)C)c3nnc(SCC(=O)c4ccccc4)n3c2c1 | 8.88% | 2.01% | 10.8% | 8.26% | 8.75%
CN1CCC(N2CC[C@H](c3nc4ccc(C(F)(F)F)cc4[nH]3)C2)CC1 | -7.32% | -8.07% | -76.2% | -10.8% | 2.78%
O=C1NCCCCCCN(S(=O)(=O)Cc2ccccc2F)[C@H]2CCC[C@@H]12 | -7.42% | -8.03% | -4.69% | -13.6% | -6.11%
CCCN1CC2(CCN(C)CC2)CC1C(=O)N(C)Cc1ccn[nH]1 (stereo not drawn) | -0.975% | 2.44% | 2.07% | -2.96% | 0.969%
CC(CCC(=O)N1CCn2nc(Cc3ccccc3)cc2C1)N1CCCC1 (stereo not drawn) | -1.92% | -0.956% | -5.29% | -2.43% | 0.327%
O=C(c1cccnc1)N1C[C@@H]2OCC(=O)N(c3ccccc3)[C@@H]2C1 | -3.28% | -6.12% | -9.22% | -11.4% | -15.3%
O=C(CCn1ccc2cc(S(=O)(=O)N3CCCCC3)ccc21)N1CCCCC1 | 2.19% | 0% | -0.893% | 0.571% | -1.19%
CC(=O)c1c(C)cc2cccc(O)c2c1O[C@@H]1O[C@H](CO)[C@@H](O)[C@H](O)[C@H]1O | 0% | -8.59% | 2.63% | -15.3% | -45%
CC(=O)O[C@H]1C[C@@]2(C)[C@@H](CC[C@H]3[C@@]4(C)C=CC(=O)[C@@H](C)[C@@H]4[C@H](OC(C)=O)C(=O)[C@@]32C)/C1=C(\CCC=C(C)C)C(=O)O | 3.38% | 2.36% | 4.42% | -11.4% | 0.726%
Cc1ccccc1NC(=O)Cn1nc2n(CCC(C)C)c(=O)c3ccc(C(=O)NC(C)C)cc3n2c1=O | 5.6% | 0% | 3.46% | 0.831% | 2.81%
Cc1noc(C)c1C(=O)N[C@@H]1CN(c2ncccn2)C[C@H]1CN(C)C | -3.17% | -3.89% | -2.08% | -13.7% | 8.48%
CC1CCCN(c2nc3c(-c4ccccc4)nnn3c3ccccc23)C1 (stereo not drawn) | -6.81% | 0.646% | -3.03% | -7.19% | -19.2%
CC(=O)Nc1c2n(c3ccccc13)CC(C)(C(=O)NCCC(C)C)N(Cc1ccccc1Cl)C2=O (stereo not drawn) | -4.85% | 4.79% | -2.48% | -4.59% | -0.211%
CCCC1c2cccn2CCN1C(=O)Nc1ccc(F)c(Cl)c1 (stereo not drawn) | -3.17% | 2.04% | -24.9% | -4.78% | 0.326%
Cc1ccc(CN2C(=O)c3ccc(-c4ccco4)n3CC2(C)C(=O)NC2CCCCCC2)cc1 (stereo not drawn) | -18.9% | 1.05% | -11.4% | -16.4% | -4.84%

Structure (SMILES) | activity change, negative = inhibition [1] | activity change, negative = inhibition [2] | activity change, negative = inhibition [3] | activity change, negative = inhibition [4] | activity change, negative = inhibition [5]
Cc1ccc([S+](=O)([O-])NC2CCN(CCn3nc4n(c3=O)CCCC4)C2)cc1 (stereo not drawn) | -18.2% | 0.534% | -3.64% | -8.92% | -5.98%
CCCn1c(=O)c2ccccc2n2c(SCC(=O)NC(C)CC)nnc12 (stereo not drawn) | 5.9% | 3.9% | 9.36% | 7.66% | 4.8%
COc1ccccc1CN1C(=O)c2ccc(-c3ccco3)n2CC1(C)C(=O)NC1CCCCC1 (stereo not drawn) | -7.47% | 0% | 4.08% | 1.98% | -2.37%
CCCCCNc1nc2c(-c3ccc(F)cc3)nnn2c2ccccc12 | -0.574% | 0% | -1.91% | -1.31% | -2.75%
CCc1cc2c(cc3n2CC(C)(C(=O)NC2CCC(C)CC2)N(CCN2CCCCCC2)C3=O)s1 (stereo not drawn) | -6.07% | 1.77% | -10.8% | -9.28% | -5.77%
CCOc1ccccc1NS(=O)(=O)c1ccc2c(c1)NC(=O)CC(=O)N2 | 4.41% | 0% | 8.78% | 13.6% | 0.794%
CCc1cc2c(cc3n2CC(C(=O)NC2CCCCC2)(c2ccccc2)N(Cc2ccccc2Cl)C3=O)s1 (stereo not drawn) | 2.33% | -20.3% | 2.77% | 0.679% | -6.7%
O=C(CCc1nnn2c1CN(C(=O)COc1ccc(F)cc1)CC2)NCc1ccccc1 | -1.65% | -0.848% | 0.049% | -1.34% | 3.2%
COCCc1noc(-c2ccccc2OC2CN(C(=O)Cc3c[nH]c4ccccc34)C2)n1 | -6.42% | 0.593% | -6.59% | 1.76% | -0.096%
CCC(C)NC(=O)c1ccc2c(=O)n(CC(C)C)c3nn(CC(=O)NCc4ccc(C)cc4)c(=O)n3c2c1 (stereo not drawn) | 2.25% | 2.84% | 5.03% | 1.39% | -0.827%
CCCN1C(=O)c2c(C(=O)NCc3cccs3)ncn2CC1(C)C(=O)NCCC(C)C (stereo not drawn) | -0.476% | 0% | 5.04% | -0.999% | 3.73%
CC(=O)N1CCC(OCCOc2ccccc2)CC1 | -3.05% | -0.96% | 1.97% | 0.171% | 16.9%
CN1C(=O)c2cc(C(=O)NCCCN3CCOCC3)nn2CC1(C)C(=O)NC1CCCCCC1 (stereo not drawn) | 6.89% | 2.85% | 8.5% | 6.32% | 3.57%
COC(=O)c1cc2n(n1)CC(C)(C(=O)NC1CCCCC1)N(c1cccc(Cl)c1C)C2=O (stereo not drawn) | 7.42% | 1.91% | 10.5% | 6.7% | 4.81%
CC(C)=CCC[C@](C)(O[C@@H]1O[C@H](CO[C@@H]2O[C@@H](CO)[C@H](O)[C@H]2O[C@@H]2OC[C@@H](O)[C@H](O)[C@H]2O)[C@@H](O)[C@H](O)[C@H]1O)[C@H]1CC[C@]2(C)[C@@H]1[C@H](O)CC1[C@@]3(C)CC[C@H](O[C@@H]4O[C@H](CO)[C@@H](O)[C@H](O)[C@H]4O[C@@H]4O[C@H](CO)[C@@H](O)[C@H](O)[C@H]4O)C(C)(C)C3CC[C@]12C (stereo partly drawn) | 2.41% | 13.5% | 10.2% | -3.04% | -1.7%
COc1ccccc1NC(=O)CSc1nnc2n(Cc3ccccc3)c(=O)c3ccccc3n12 | -4.9% | 1.3% | 1.21% | -5.09% | -2.67%
Cc1cc(C(=O)N2CCC(N3CCCC(C(=O)NCCc4ccccc4)C3)CC2)n[nH]1 (stereo not drawn) | -4.6% | -7.51% | -4.03% | -9.66% | 7.91%
Nc1ncccc1CNC(=O)[C@H]1CCC[C@H](O)C1 | -1.19% | -0.626% | 2.16% | -2.28% | -0.445%
O=[N+]([O-])c1cn2c(n1)OC[C@@H](OCc1ccc(OC(F)(F)F)cc1)C2 |  | -2.94% |  | -16.1% | -10.8%
O=C(CCn1ccc2cc(S(=O)(=O)N3CCCC3)ccc21)NCc1cccc(Br)c1 | 6.78% | 0.46% | 8.34% | 9.18% | 4.09%

Structure (SMILES) | activity change, negative = inhibition [1] | activity change, negative = inhibition [2] | activity change, negative = inhibition [3] | activity change, negative = inhibition [4] | activity change, negative = inhibition [5]
CCOC(=O)C(C)Oc1cccc2c(=O)n(CC(=O)Nc3ccc4c(c3)OCCO4)ccc12 (stereo not drawn) | 4.57% | 14% | 5.22% | -0.49% | 10.2%
O=C(O)c1ccc(CN2C[C@@H]3OCC(=O)N(c4ccccc4)[C@@H]3C2)cc1 | -3.2% | -4.96% | -0.791% | -9.58% | -8.32%
CCN1C(=O)c2cc(C(=O)N3CCC(N4CCCCC4)CC3)nn2CC1(C)C(=O)NC1CCCC1 (stereo not drawn) | 9.03% | 1.46% | 0.118% | 8.73% | 7.21%
C[C@]12CCC[C@](C)(C(=O)O)C1CCC13CC(CO)C(CCC12)C3 (stereo partly drawn) | 0% | 4.4% | 11.8% | -9.88% | 1.68%
O=C(CC1C(=O)NCCN1CC(c1ccccc1)c1ccccc1)NCc1ccco1 (stereo not drawn) | -12.2% | -2.2% | -7.02% | -7.97% | 0.221%
CS(=O)(=O)N1C[C@H]2CCN(C(=O)Cc3ccccc3Cl)C[C@H]21 | -5.57% | -14.7% | -4.05% | -9.63% | -5%
CCCn1c(=O)c2ccc(C(=O)NC3CCCC3)cc2n2c(=O)n(Cc3cccc(Cl)c3)nc12 | 2.06% | 0% | 5.04% | 1.5% | -1.18%
Cc1ccc(CCN2C(=O)CSc3c(c4ccccc4n3C)C2C(=O)NCCC(C)C)cc1 (stereo not drawn) | 3.74% | 0% | 1.67% | -1.26% | 3.77%
O=C(NCC1CN(C(=O)Cc2cccc(Cl)c2)CC12CN(c1ccccc1)C2)C1CC1 (stereo not drawn) | -6.58% | -1.75% | -1.66% | -10.9% | -3.63%
COc1cccc(S(=O)(=O)N2CCC(OCCOCc3ccccc3)CC2)c1 | -10.1% | -0.504% | -3.54% | -8.61% | -7.55%
CC1(C(=O)NC2CCCCCC2)Cn2nc(C3CC3)cc2C(=O)N1Cc1ccccc1Cl (stereo not drawn) | 0.317% | 0% | 7.21% | 2.37% | 0.122%
COc1cccc2c1NC(c1ccc(Br)cc1)C1CC=CC21 (stereo not drawn) | -6.06% | -2.06% | -7.44% | -18.5% | -20.8%
CCc1cc2c(cc3n2CC(C)(C(=O)NC2CCC(C)CC2)N(Cc2ccc(F)cc2)C3=O)s1 (stereo not drawn) | 5.9% | 2.4% | 6.61% | 3.11% | 2.27%
Cc1cccc(CSc2nnc3n(Cc4ccccc4)c(=O)c4ccc(C(=O)NC(C)C)cc4n23)c1 | 8.46% | 3.48% | 12.6% | 6.84% | 8.07%
CCCCN1C(=O)c2ccccc2CC1(C)C(=O)NCc1ccccc1 (stereo not drawn) | 11.2% | 0% | 11.1% | -2.12% | 1.48%
CC(C)Cc1noc(CN(C)C(=O)CC2C(=O)NCCN2CC(C)C)n1 (stereo not drawn) | -2.02% | 1.8% | -1.3% | 2.97% | -0.799%
Cc1ccc(N2C(=O)c3cc4sccc4n3CC2(C)C(=O)NC2CCCCCCC2)cc1 (stereo not drawn) | -1.03% | 0.059% | 3.16% | 1.84% | 0.09%
CC(=O)O[C@H]1CC[C@@]2(C)C(CC[C@@H](C)[C@]23Cc2c(O)cc4c(c2O3)CN([C@@H](CCC(=O)O)C(=O)O)C4=O)C1(C)C (stereo partly drawn) | -3.15% | 5.37% | -3.88% | -9.66% | 3.55%
